{
  "source": "the supplement of paper PMC4166925",
  "note": "± gives the standard deviation of the averaged measurements. The full ranking holds about 33,000 sequences; the median of “E-score (dimensionless, -0.5 to 0.5)” is about -0.049, and the highest 2% start at about 0.37. This is one part of the list.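 Also: 200 nM protein in PBS on universal arrays averaged over duplicate arrays.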",
  "data": [
    {"test_system": "T1, PmTbr T-box DNA-binding domain (GST fusion)", "T1 sequence": "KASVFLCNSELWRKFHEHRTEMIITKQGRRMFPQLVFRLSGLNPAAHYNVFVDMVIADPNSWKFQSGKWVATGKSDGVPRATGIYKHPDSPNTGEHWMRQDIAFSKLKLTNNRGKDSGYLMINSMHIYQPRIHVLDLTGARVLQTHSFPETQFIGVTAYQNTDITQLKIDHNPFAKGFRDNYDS", "assay": "PBM E-score of 8-mer (E-score (dimensionless, -0.5 to 0.5)); Tbr is Tbrain of the sea star Patiria miniata (Pm) or the sea urchin Strongylocentrotus purpuratus (Sp); higher = stronger binding preference; most listed sequences are background and not binding sites", "conditions": "the construct has about 5 more residues each side", "procedure": "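Universal protein-binding microarray (Agilent AMADID 016060, 60-bp probes with a 35-bp variable region) incubated with 200 nM GST-fused Patiria miniata Tbr T-box DNA-binding domain (residues 272-466) in PBS pH 7.5. Scored for every ungapped 8-mer (given with its reverse complement) by the Universal PBM Analysis Suite as E-score (modified Wilcoxon-Mann-Whitney enrichment, range -0.5 to 0.5; >0.45 counts as bound) and Z-score of median probe intensity. Two replicate arrays (datasets 1 and 2).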", "values": [
      {"sequence": "ATCCTCTA", "PBM E-score of 8-mer": "-0.268 ± 0.035"},
      {"sequence": "ATGGCTAG", "PBM E-score of 8-mer": "-0.125 ± 0.048"},
      {"sequence": "AACGTCGG", "PBM E-score of 8-mer": "-0.094 ± 0.11"},
      {"sequence": "ATAGCTTA", "PBM E-score of 8-mer": "-0.178 ± 0.047"},
      {"sequence": "CATGATGC", "PBM E-score of 8-mer": "-0.0752 ± 0.034"},
      {"sequence": "AGGAGACC", "PBM E-score of 8-mer": "-0.201 ± 0.0021"},
      {"sequence": "CGTGTGCC", "PBM E-score of 8-mer": "0.0527 ± 0.013"},
      {"sequence": "GCAGCCCC", "PBM E-score of 8-mer": "-0.153 ± 0.11"},
      {"sequence": "ATGGCGCG", "PBM E-score of 8-mer": "0.174 ± 0.0047"},
      {"sequence": "CCGTGCGC", "PBM E-score of 8-mer": "-0.0174 ± 0.045"},
      {"sequence": "GGATATTA", "PBM E-score of 8-mer": "-0.324 ± 0.004"},
      {"sequence": "ACCTTACG", "PBM E-score of 8-mer": "0.0769 ± 0.052"},
      {"sequence": "AGATGCAT", "PBM E-score of 8-mer": "-0.0558 ± 0.0014"},
      {"sequence": "CAACTCAG", "PBM E-score of 8-mer": "0.0305 ± 0.0082"},
      {"sequence": "CACCCAAA", "PBM E-score of 8-mer": "0.0441 ± 0.04"},
      {"sequence": "ACCAATAA", "PBM E-score of 8-mer": "-0.11 ± 0.051"},
      {"sequence": "CTGCGTAA", "PBM E-score of 8-mer": "-0.156 ± 0.097"},
      {"sequence": "CTTTTGCA", "PBM E-score of 8-mer": "0.0816 ± 0.017"},
      {"sequence": "CCATAGGA", "PBM E-score of 8-mer": "-0.0411 ± 0.059"},
      {"sequence": "TCCAGGAA", "PBM E-score of 8-mer": "-0.132 ± 0.0051"},
      {"sequence": "AAATTCAG", "PBM E-score of 8-mer": "-0.041 ± 0.0023"},
      {"sequence": "ATCCAGAG", "PBM E-score of 8-mer": "-0.197 ± 0.0054"},
      {"sequence": "GTGCAAAA", "PBM E-score of 8-mer": "0.292 ± 0.04"},
      {"sequence": "AGTCAGCG", "PBM E-score of 8-mer": "-0.0505 ± 0.06"},
      {"sequence": "GAACCACC", "PBM E-score of 8-mer": "-0.0223 ± 0.019"},
      {"sequence": "CTTGACGC", "PBM E-score of 8-mer": "0.27 ± 0.0032"},
      {"sequence": "TCCCCTAA", "PBM E-score of 8-mer": "-0.114 ± 0.027"},
      {"sequence": "TCGCAAGA", "PBM E-score of 8-mer": "0.16 ± 0.052"},
      {"sequence": "ACTGCTGC", "PBM E-score of 8-mer": "-0.0992 ± 0.02"},
      {"sequence": "GTCGGAGA", "PBM E-score of 8-mer": "-0.0752 ± 0.028"},
      {"sequence": "ACTTGCGG", "PBM E-score of 8-mer": "-0.0023 ± 0.035"},
      {"sequence": "ACCAGCTG", "PBM E-score of 8-mer": "-0.0194 ± 0.046"},
      {"sequence": "TACGTACA", "PBM E-score of 8-mer": "-0.0771 ± 0.031"},
      {"sequence": "AAGTCAGG", "PBM E-score of 8-mer": "-0.238 ± 0.099"},
      {"sequence": "GGCCCCAA", "PBM E-score of 8-mer": "0.135 ± 0.025"},
      {"sequence": "CGCTAGGC", "PBM E-score of 8-mer": "0.0909 ± 0.074"},
      {"sequence": "CATATCAA", "PBM E-score of 8-mer": "-0.0653 ± 0.053"},
      {"sequence": "AAGATAGA", "PBM E-score of 8-mer": "-0.295 ± 0.018"},
      {"sequence": "CAGGTATA", "PBM E-score of 8-mer": "-0.0703 ± 0.081"},
      {"sequence": "AGCCGAAT", "PBM E-score of 8-mer": "-0.306 ± 0.019"},
      {"sequence": "AACGCTGG", "PBM E-score of 8-mer": "0.0657 ± 0.046"},
      {"sequence": "ACGTATTC", "PBM E-score of 8-mer": "-0.0822 ± 0.024"},
      {"sequence": "CCTTATCG", "PBM E-score of 8-mer": "0.129 ± 0.06"},
      {"sequence": "GCTTCGCC", "PBM E-score of 8-mer": "-0.155 ± 0.1"},
      {"sequence": "AGGTACGC", "PBM E-score of 8-mer": "-0.135 ± 0.045"},
      {"sequence": "AAAGTCCG", "PBM E-score of 8-mer": "-0.00454 ± 0.029"},
      {"sequence": "AGACTGAA", "PBM E-score of 8-mer": "-0.126 ± 0.028"},
      {"sequence": "ACCTCCAT", "PBM E-score of 8-mer": "0.14 ± 0.014"},
      {"sequence": "CCCGTTCG", "PBM E-score of 8-mer": "0.00454 ± 0.0041"},
      {"sequence": "AACTTGGT", "PBM E-score of 8-mer": "0.00681 ± 0.077"},
      {"sequence": "ATTCAGAG", "PBM E-score of 8-mer": "-0.13 ± 0.0013"},
      {"sequence": "CACGAGAC", "PBM E-score of 8-mer": "-0.0797 ± 0.018"},
      {"sequence": "CCGAACTA", "PBM E-score of 8-mer": "-0.2 ± 0.11"},
      {"sequence": "GTCGGTCA", "PBM E-score of 8-mer": "-0.033 ± 0.025"},
      {"sequence": "AAACGGTT", "PBM E-score of 8-mer": "-0.0183 ± 0.0019"},
      {"sequence": "CGGGTCAC", "PBM E-score of 8-mer": "0.113 ± 0.024"},
      {"sequence": "ACGCCTAG", "PBM E-score of 8-mer": "0.292 ± 0.011"},
      {"sequence": "AGAATCGA", "PBM E-score of 8-mer": "-0.0268 ± 0.011"},
      {"sequence": "CGTATCAG", "PBM E-score of 8-mer": "0.0697 ± 0.037"},
      {"sequence": "CTTTTAAC", "PBM E-score of 8-mer": "0.0881 ± 0.12"},
      {"sequence": "GTGCGTCA", "PBM E-score of 8-mer": "0.11 ± 0.023"},
      {"sequence": "CAACTAGC", "PBM E-score of 8-mer": "0.064 ± 0.0028"},
      {"sequence": "GTGCCGTA", "PBM E-score of 8-mer": "-0.0314 ± 0.012"},
      {"sequence": "GGTACGCA", "PBM E-score of 8-mer": "-0.154 ± 0.074"},
      {"sequence": "CGGACAGA", "PBM E-score of 8-mer": "-0.178 ± 0.065"},
      {"sequence": "CCCGGACA", "PBM E-score of 8-mer": "0.0682 ± 0.084"},
      {"sequence": "ACACGCGA", "PBM E-score of 8-mer": "0.2396 ± 0.0015"},
      {"sequence": "ATCCAGCC", "PBM E-score of 8-mer": "-0.0409 ± 0.03"},
      {"sequence": "CTTATGTA", "PBM E-score of 8-mer": "-0.156 ± 0.026"},
      {"sequence": "TAACGTAA", "PBM E-score of 8-mer": "-0.228 ± 0.093"},
      {"sequence": "TAGATTCA", "PBM E-score of 8-mer": "-0.0302 ± 0.012"},
      {"sequence": "CCCTGCCG", "PBM E-score of 8-mer": "0.0201 ± 0.13"},
      {"sequence": "GAGGAGGA", "PBM E-score of 8-mer": "-0.0974 ± 0.01"},
      {"sequence": "AATTATTG", "PBM E-score of 8-mer": "-0.227 ± 0.061"},
      {"sequence": "ACCGGTAA", "PBM E-score of 8-mer": "-0.0335 ± 0.019"},
      {"sequence": "GTGTCGTA", "PBM E-score of 8-mer": "0.327 ± 0.018"},
      {"sequence": "ACCGTTAG", "PBM E-score of 8-mer": "0.1015 ± 0.00013"},
      {"sequence": "AGCCAATG", "PBM E-score of 8-mer": "-0.214 ± 0.11"},
      {"sequence": "AATATGAC", "PBM E-score of 8-mer": "0.0569 ± 0.057"},
      {"sequence": "CCTATTAA", "PBM E-score of 8-mer": "-0.157 ± 0.027"},
      {"sequence": "CAGATAAC", "PBM E-score of 8-mer": "0.115 ± 0.039"},
      {"sequence": "CTCTCAGA", "PBM E-score of 8-mer": "-0.132 ± 0.047"},
      {"sequence": "ACTCGTGG", "PBM E-score of 8-mer": "-0.116 ± 0.019"},
      {"sequence": "CCCGCATA", "PBM E-score of 8-mer": "-0.191 ± 0.079"},
      {"sequence": "GCCGTACA", "PBM E-score of 8-mer": "-0.108 ± 0.013"},
      {"sequence": "AGAGAGGA", "PBM E-score of 8-mer": "-0.145 ± 0.033"}
    ]}
  ]
}
